Data published in patent EP0622356A1, “Indoloylguanidine derivatives as inhibitors of sodium-hydrogen exchange” (SUMITOMO PHARMACEUTICALS COMPANY, LIMITED, priority 1993, dated 1994).
Where a name gives a salt, the structure may show the parent alone. At least one structure is not confirmed: it was looked up by name or label, or the drawing left a doubt.

Each compound was assayed against T1, Na⁺/H⁺ exchanger (Rattus norvegicus, UniProt P26431) (assay: Inhibition of Na⁺/H⁺ exchanger activity in vitro (change in cell viability during acid loading)). Settings: cells marked *: not measurable due to cytotoxicity.
T1 construct: using the vascular smooth muscle cells isolated from the rat thoracic aorta; endogenous in cells; host or cells: primary vascular smooth muscle cells isolated from rat thoracic aorta
T1 sequence (P26431 whole entry): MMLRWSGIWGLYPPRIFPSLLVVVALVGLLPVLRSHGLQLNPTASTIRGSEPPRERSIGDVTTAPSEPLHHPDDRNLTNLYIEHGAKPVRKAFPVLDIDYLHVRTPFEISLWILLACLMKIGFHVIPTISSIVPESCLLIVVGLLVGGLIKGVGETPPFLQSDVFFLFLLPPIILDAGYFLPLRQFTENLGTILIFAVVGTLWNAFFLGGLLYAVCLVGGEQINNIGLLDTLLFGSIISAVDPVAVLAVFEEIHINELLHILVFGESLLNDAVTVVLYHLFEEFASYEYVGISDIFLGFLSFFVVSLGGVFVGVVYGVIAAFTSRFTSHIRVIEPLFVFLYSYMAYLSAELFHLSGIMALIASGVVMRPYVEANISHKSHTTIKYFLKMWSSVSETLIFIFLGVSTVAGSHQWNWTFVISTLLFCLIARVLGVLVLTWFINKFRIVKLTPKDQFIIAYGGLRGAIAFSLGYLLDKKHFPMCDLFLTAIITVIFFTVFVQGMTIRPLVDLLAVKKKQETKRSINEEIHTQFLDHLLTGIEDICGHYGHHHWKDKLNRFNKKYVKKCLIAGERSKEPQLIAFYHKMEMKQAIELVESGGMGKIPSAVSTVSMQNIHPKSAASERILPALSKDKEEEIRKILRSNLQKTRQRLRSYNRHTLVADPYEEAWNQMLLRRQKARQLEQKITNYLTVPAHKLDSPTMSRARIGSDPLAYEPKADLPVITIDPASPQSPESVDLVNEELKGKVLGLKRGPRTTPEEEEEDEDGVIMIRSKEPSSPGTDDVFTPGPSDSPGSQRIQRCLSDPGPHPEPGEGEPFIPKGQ
Format: cell-based
Parameters: key: * : not measurable due to cytotoxicity
Method: The experiment was performed by modifying the method of Mungre et al. described in Exp. Cell Res., 193, 236 (1991). That is, inhibition of the Na⁺/H⁺ exchanger activity was evaluated by the change in cell viability during acid loading, using the vascular smooth muscle cells isolated from the rat thoracic aorta.
The compounds of the present invention shown in Examples were evaluated by the minimum effective concentration (MEC) for the inhibition of the Na⁺/H⁺ exchanger activity.
`N=C(N)NC(=O)c1cc2ccccc2n1Cc1ccc(Br)cc1` [Example 37, 1-(4-Bromobenzyl)-2-indoloylguanidine hydrochloride] was tested, and the “Inhibition of Na^+/H^+ Exchanger MEC” value was “*”.

Same assay, conditions: minimum effective concentration; vascular smooth muscle cells isolated from the rat thoracic aorta; change in cell viability during acid loading
With `Cn1c(C(=O)N=C(N)N)cc2ccccc21` [Example 1, 1-methyl-2-indoloylguanidine hydrochloride] the “Inhibition of Na^+/H^+ Exchanger MEC” value was 1.0 µM.
For `Cn1ccc2cc(C(=O)N=C(N)N)ccc21` [Example 2, 1-methyl-5-indoloylguanidine hydrochloride], the “Inhibition of Na^+/H^+ Exchanger MEC” value was 10 µM.
In the case of `Cn1cc(C(=O)N=C(N)N)c2ccccc21` [Example 3, 1-methyl-3-indoloylguanidine hydrochloride], the “Inhibition of Na^+/H^+ Exchanger MEC” value is reported as >10 µM.
In the case of `Cn1ccc2c(C(=O)N=C(N)N)cccc21` [Example 4, 1-methyl-4-indoloylguanidine hydrochloride], the “Inhibition of Na^+/H^+ Exchanger MEC” value is reported as >10 µM.
With `Cn1c(C(=O)N=C(N)N)cc2c(Cl)cccc21` [Example 5, 4-chloro-1-methyl-2-indoloylguanidine hydrochloride] the “Inhibition of Na^+/H^+ Exchanger MEC” value was 0.03 µM.
With `Cn1c(C(=O)N=C(N)N)cc2cc(Cl)ccc21` [Example 6, 5-Chloro-1-methyl-2-indoloylguanidine hydrochloride] the “Inhibition of Na^+/H^+ Exchanger MEC” value was 0.3 µM.
For `Cn1c(C(=O)N=C(N)N)cc2ccc(Cl)cc21` [Example 7, 6-Chloro-1-methyl-2-indoloylguanidine hydrochloride], the “Inhibition of Na^+/H^+ Exchanger MEC” value was 0.3 µM.
For `Cn1c(C(=O)N=C(N)N)cc2cccc(Cl)c21` [Example 8, 7-Chloro-1-methyl-2-indoloylguanidine hydrochloride], the “Inhibition of Na^+/H^+ Exchanger MEC” value was 0.3 µM.
In the case of `Cc1cccc2c1cc(C(=O)N=C(N)N)n2C` [Example 9, 1,4-Dimethyl-2-indoloylguanidine hydrochloride], the “Inhibition of Na^+/H^+ Exchanger MEC” value is reported as 0.1 µM.
`Cc1ccc2c(c1)cc(C(=O)N=C(N)N)n2C` [Example 10, 1,5-Dimethyl-2-indoloylguanidine hydrochloride] was tested, and the “Inhibition of Na^+/H^+ Exchanger MEC” value was 10 µM.
In the case of `Cc1ccc2cc(C(=O)N=C(N)N)n(C)c2c1` [Example 11, 1,6-Dimethyl-2-indoloylguanidine hydrochloride], the “Inhibition of Na^+/H^+ Exchanger MEC” value is reported as 0.3 µM.
For `Cc1cccc2cc(C(=O)N=C(N)N)n(C)c12` [Example 12, 1,7-Dimethyl-2-indoloylguanidine hydrochloride], the “Inhibition of Na^+/H^+ Exchanger MEC” value was 0.3 µM.
In the case of `COc1ccc2c(c1)cc(C(=O)N=C(N)N)n2C` [Example 13, 5-Methoxy-1-methyl-2-indoloylguanidine hydrochloride], the “Inhibition of Na^+/H^+ Exchanger MEC” value is reported as 1.0 µM.
`Cn1ccc2ccc(C(=O)N=C(N)N)cc21` [Example 14, 1-Methyl-6-indoloylguanidine hydrochloride] was tested, and the “Inhibition of Na^+/H^+ Exchanger MEC” value was >10 µM.
With `NC(N)=NC(=O)c1cc2ccccc2n1Cc1ccccc1` [Example 15, 1-Benzyl-2-indoloylguanidine hydrochloride] the “Inhibition of Na^+/H^+ Exchanger MEC” value was 0.3 µM.
In the case of `NC(N)=NC(=O)c1cc2ccccc2[nH]1` [Example 18, 2-Indoloylguanidine hydrochloride], the “Inhibition of Na^+/H^+ Exchanger MEC” value is reported as 10 µM.
With `NC(N)=NC(=O)c1c[nH]c2ccccc12` [Example 19, 3-Indoloylguanidine hydrochloride] the “Inhibition of Na^+/H^+ Exchanger MEC” value was >10 µM.
For `NC(N)=NC(=O)c1ccc2[nH]ccc2c1` [Example 20, 5-Indoloylguanidine hydrochloride], the “Inhibition of Na^+/H^+ Exchanger MEC” value was 1.0 µM.
For `CC(C)n1ccc2cc(C(=O)N=C(N)N)ccc21` [Example 21, 1-Isopropyl-5-indoloylguanidine hydrochloride], the “Inhibition of Na^+/H^+ Exchanger MEC” value was 1.0 µM.
In the case of `COc1cccc2c1cc(C(=O)N=C(N)N)n2C` [Example 22, 4-Methoxy-1-methyl-2-indoloylguanidine hydrochloride], the “Inhibition of Na^+/H^+ Exchanger MEC” value is reported as 0.3 µM.
For `COc1ccc2cc(C(=O)N=C(N)N)n(C)c2c1` [Example 23, 6-Methoxy-1-methyl-2-indoloylguanidine hydrochloride], the “Inhibition of Na^+/H^+ Exchanger MEC” value was 0.3 µM.
In the case of `Cn1c(C(=O)N=C(N)N)cc2c([N+](=O)[O-])cccc21` [Example 24, 1-Methyl-4-nitro-2-indoloylguanidine hydrochloride], the “Inhibition of Na^+/H^+ Exchanger MEC” value is reported as 0.3 µM.
`Cn1c(C(=O)N=C(N)N)cc2ccc([N+](=O)[O-])cc21` [Example 25, 1-Methyl-6-nitro-2-indoloylguanidine hydrochloride] was tested, and the “Inhibition of Na^+/H^+ Exchanger MEC” value was 0.3 µM.
For `Cn1c(C(=O)N=C(N)N)cc2cccc([N+](=O)[O-])c21` [Example 26, 1-Methyl-7-nitro-2-indoloylguanidine hydrochloride], the “Inhibition of Na^+/H^+ Exchanger MEC” value was 0.3 µM.
With `Cn1c(C(=O)N=C(N)N)cc2cc([N+](=O)[O-])ccc21` [Example 27, 1-Methyl-5-nitro-2-indoloylguanidine hydrochloride] the “Inhibition of Na^+/H^+ Exchanger MEC” value was 3.0 µM.
In the case of `Cn1ccc2cccc(C(=O)N=C(N)N)c21` [Example 28, 1-Methyl-7-indoloylguanidine hydrochloride], the “Inhibition of Na^+/H^+ Exchanger MEC” value is reported as >10 µM.
In the case of `Cn1c(C(=O)N=C(N)N)cc2c(C(F)(F)F)cccc21` [Example 29, 1-Methyl-4-trifluoromethyl-2-indoloylguanidine hydrochloride], the “Inhibition of Na^+/H^+ Exchanger MEC” value is reported as 0.03 µM.
`Cn1c(C(=O)N=C(N)N)cc2cc(F)ccc21` [Example 30, 5-Fluoro-1-methyl-2-indoloylguanidine hydrochloride] was tested, and the “Inhibition of Na^+/H^+ Exchanger MEC” value was 1.0 µM.
With `CCOc1ccc2c(c1)cc(C(=O)N=C(N)N)n2C` [Example 31, 5-Ethoxy-1-methyl-2-indoloylguanidine hydrochloride] the “Inhibition of Na^+/H^+ Exchanger MEC” value was >10 µM.
`Cn1c(C(=O)N=C(N)N)cc2cc(OCc3ccccc3)ccc21` [Example 32, 5-Benzyloxy-1-methyl-2-indoloylguanidine hydrochloride] was tested, and the “Inhibition of Na^+/H^+ Exchanger MEC” value was >10 µM.
In the case of `Cn1c(C(=O)N=C(N)N)cc2ccc(C(F)(F)F)cc21` [Example 33, 1-Methyl-6-trifluoromethyl-2-indoloylguanidine hydrochloride], the “Inhibition of Na^+/H^+ Exchanger MEC” value is reported as 1.0 µM.
With `Cn1c(C(=O)N=C(N)N)cc2cccc(OCc3ccccc3)c21` [Example 34, 7-Benzyloxy-1-methyl-2-indoloylguanidine hydrochloride] the “Inhibition of Na^+/H^+ Exchanger MEC” value was 3.0 µM.
For `NC(N)=NC(=O)c1cc2ccccc2n1Cc1ccc2ccccc2c1` [Example 35, 1-(2-Naphthylmethyl)-2-indoloylguanidine hydrochloride], the “Inhibition of Na^+/H^+ Exchanger MEC” value was 1.0 µM.
`NC(N)=NC(=O)c1cc2ccccc2n1CCc1ccccc1` [Example 36, 1-(2-Phenylethyl)-2-indoloylguanidine hydrochloride] was tested, and the “Inhibition of Na^+/H^+ Exchanger MEC” value was 0.1 µM.
For `N=C(N)NC(=O)c1cc2ccccc2n1Cc1ccc([N+](=O)[O-])cc1` [Example 38, 1-(4-Nitrobenzyl)-2-indoloylguanidine hydrochloride], the “Inhibition of Na^+/H^+ Exchanger MEC” value was 3.0 µM.
`COc1ccc(Cn2c(C(=O)NC(=N)N)cc3ccccc32)cc1` [Example 39, 1-(4-Methoxybenzyl)-2-indoloylguanidine hydrochloride] was tested, and the “Inhibition of Na^+/H^+ Exchanger MEC” value was 0.3 µM.
For `N=C(N)NC(=O)c1cc2ccccc2n1CCCc1ccccc1` [Example 40, 1-(3-Phenylpropyl)-2-indoloylguanidine hydrochloride], the “Inhibition of Na^+/H^+ Exchanger MEC” value was 1.0 µM.
For `N=C(N)NC(=O)c1cc2ccccc2n1CCCCc1ccccc1` [Example 41, 1-(4-Phenylbutyl)-2-indoloylguanidine hydrochloride], the “Inhibition of Na^+/H^+ Exchanger MEC” value was 1.0 µM.
